Measured values: the supplement of paper PMC8728848
The list shows a part of the results.

Assays:
Experiment in all cases: glycan array binding signal (z-score within array); higher = stronger binding
Details in all cases: glycan notation: IUPAC condensed, linker removed
[1] = molecular target: Neu5Ac(a2-3)Gal(b1-4)GlcNAc(b1-6)GalNAc
Method in brief: (§1)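 Arrays were curated from the Consortium for Functional Glycomics database, 3228 in total, and kept only where the protein sequence was available. Binding is expressed as a within-array Z-score. This score was averaged across arrays of the same protein sequence at different concentrations or buffers and across linkers, and negative values can be read as non-binding.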

[2] = molecular target: Neu5Ac(a2-3)Gal(b1-4)GlcNAc(b1-6)[Gal(b1-3)]GalNAc
Method in brief: as §1

[3] = molecular target: Neu5Ac(a2-3)Gal(b1-4)GlcNAc(b1-6)[Neu5Ac(a2-3)Gal(b1-3)]GalNAc
Method in brief: as §1

[4] = molecular target: Neu5Ac(a2-3)Gal(b1-4)GlcNAc6S
Method in brief: as §1

[5] = molecular target: Neu5Ac(a2-3)Gal(b1-4)[Fuc(a1-3)]GlcNAc
Method in brief: as §1

[6] = molecular target: Neu5Ac(a2-3)Gal(b1-4)[Fuc(a1-3)]GlcNAc(b1-2)Man
Method in brief: as §1

[7] = molecular target: Neu5Ac(a2-3)Gal(b1-4)[Fuc(a1-3)]GlcNAc(b1-3)Gal
Method in brief: as §1

[8] = molecular target: Neu5Ac(a2-3)Gal(b1-4)[Fuc(a1-3)]GlcNAc(b1-3)Gal(b1-4)GlcNAc
Method in brief: as §1

[9] = molecular target: Neu5Ac(a2-3)Gal(b1-4)[Fuc(a1-3)]GlcNAc(b1-3)Gal(b1-4)[Fuc(a1-3)]GlcNAc(b1-3)Gal(b1-4)[Fuc(a1-3)]GlcNAc
Method in brief: as §1

[10] = molecular target: Neu5Ac(a2-3)Gal(b1-4)[Fuc(a1-3)]GlcNAc(b1-3)GalNAc
Method in brief: as §1

[11] = molecular target: Neu5Ac(a2-3)Gal(b1-4)[Fuc(a1-3)]GlcNAc(b1-6)[Gal(b1-3)]GalNAc
Method in brief: as §1

[12] = molecular target: Neu5Ac(a2-3)Gal(b1-4)[Fuc(a1-3)]GlcNAc(b1-6)[Neu5Ac(a2-3)Gal(b1-3)]GalNAc
Method in brief: as §1

[13] = molecular target: Neu5Ac(a2-3)Gal(b1-4)[Fuc(a1-3)]GlcNAc6S
Method in brief: as §1

[14] = molecular target: Neu5Ac(a2-3)Gal6S(b1-4)GlcNAc
Method in brief: as §1

[15] = molecular target: Neu5Ac(a2-3)Gal6S(b1-4)[Fuc(a1-3)]GlcNAc
Method in brief: as §1

Neu5Ac(a2-3)GalNAc = molecular target: Neu5Ac(a2-3)GalNAc
Method in brief: as §1

[16] = molecular target: Neu5Ac(a2-3)GalNAc(b1-4)GlcNAc
Method in brief: as §1

[17] = molecular target: Neu5Ac(a2-3)[GalNAc(b1-4)]Gal(b1-4)Glc
Method in brief: as §1

[18] = molecular target: Neu5Ac(a2-3)[GalNAc(b1-4)]Gal(b1-4)GlcNAc
Method in brief: as §1

[19] = molecular target: Neu5Ac(a2-3)[GalNAc(b1-4)]Gal(b1-4)GlcNAc(b1-3)GalNAc
Method in brief: as §1

[20] = molecular target: Neu5Ac(a2-3)[Neu5Ac(a2-6)]GalNAc
Method in brief: as §1

Neu5Ac(a2-6)Gal = molecular target: Neu5Ac(a2-6)Gal
Method in brief: as §1

[21] = molecular target: Neu5Ac(a2-6)Gal(b1-3)GlcNAc(b1-3)[Gal(b1-4)GlcNAc(b1-6)]Gal(b1-4)Glc
Method in brief: as §1

B1: Cohesin-mDC-ASGPR (Macaca mulatta) (protein)
chain: LDITSHHHHHHDDLDAVRIKVDTVNAKPGDTVRIPVRFSGIPSKGIANCDFVYSYDPNVLEIIEIEPGDIIVDPNPDKSFDTAVYPDRKIIVFLFAEDSGTGAYAITKDGVFATIVAKVKEGAPNGLSVIKFVEVGGFANNDLVEQKTQFFDGGVNVGDTTEPATPTTPVTTPTTTDDLDAASSQNSKFQRDLVTLRTDFSNFTSNTVAEIQALTSQGSSVEEMIASLKAEVEVIKQEQQAVHSEMLLRVQRLMQDLNKLTCQVATLKNNASTERTCCPVNWVEHQDSCYWFSRSGMPWAEAEKHCQLENAHLVVINSREEQNFVQEHLSFAYTWMGLSDREGAWKWVDGTDYETGFQNWKPGQPDDWQGHGLGGGEDCAHFHPDGRWNDDVCQRPYYWVCEAGLTQASQESH
glycan array binding signal (z-score) [1]: 3.67
glycan array binding signal (z-score) [2]: -0.395
glycan array binding signal (z-score) [3]: -0.412
glycan array binding signal (z-score) [4]: -0.429
glycan array binding signal (z-score) [5]: -0.414
glycan array binding signal (z-score) [6]: -0.315
glycan array binding signal (z-score) [7]: -0.431
glycan array binding signal (z-score) [8]: -0.373
glycan array binding signal (z-score) [9]: -0.266
glycan array binding signal (z-score) [10]: -0.085
glycan array binding signal (z-score) [11]: -0.423
glycan array binding signal (z-score) [12]: -0.287
glycan array binding signal (z-score) [13]: -0.425
glycan array binding signal (z-score) [14]: -0.408
glycan array binding signal (z-score) [15]: -0.396
glycan array binding signal (z-score) (Neu5Ac(a2-3)GalNAc): -0.383
glycan array binding signal (z-score) [16]: -0.409
glycan array binding signal (z-score) [17]: 2.54
glycan array binding signal (z-score) [18]: 3.07
glycan array binding signal (z-score) [19]: 2.21
glycan array binding signal (z-score) [20]: -0.073
glycan array binding signal (z-score) (Neu5Ac(a2-6)Gal): -0.424
glycan array binding signal (z-score) [21]: -0.416
